# Source: the supplement of paper PMC8728848
# The list shows a part of the results.
# B1: CPA (Cicer arietinum) (protein)
# chain: MAFSYLNLVLVTLTTLFFLQTTKVKSQKSVSFHITNFTISRPSITLQGTAEFLPNVLLLNDIEHPVFVVGRALYSKPITLWNNKTGKVASFVTSFTFDVQDLKKTVPGHGLVFFLAPSGSEIPFSSDGGNLGVVDGKNAFNRFVGVEFDNFVNSWDPKYSHVGINVNSLISTKTVKWNRVSGELVKVSIVYDSVSTTLTVIVTYKNGQISILSQLVDLKAVLPDTVNIGFSASTTLVSPRQLHNIHSWSFTSTFET
# Key:
# Test in all cases: glycan array binding signal (z-score within array); higher = stronger binding
# Conditions in all cases: glycan notation: IUPAC condensed, linker removed
# [1] = target: GlcNAc(a1-4)Gal(b1-4)GalNAc
# How it was run: (§1)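 Negative Z-scores can be read as non-binding. The Z-score is calculated within each array and then averaged across arrays of one protein sequence at different concentrations or buffers and across linkers. Arrays, 3228 in all, were curated from the Consortium for Functional Glycomics database and kept only where the protein sequence was available.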
# [2] = target: GlcNAc(a1-4)Gal(b1-4)GlcNAc
# How it was run: as §1
# [3] = target: GlcNAc(a1-4)Gal(b1-4)GlcNAc(b1-3)Gal(b1-4)Glc
# How it was run: as §1
# [4] = target: GlcNAc(a1-4)Gal(b1-4)GlcNAc(b1-3)Gal(b1-4)GlcNAc
# How it was run: as §1
# [5] = target: GlcNAc(a1-4)Gal(b1-4)GlcNAc(b1-3)Gal(b1-4)GlcNAc(b1-3)Gal(b1-4)GlcNAc
# How it was run: as §1
# [6] = target: GlcNAc(a1-4)Gal(b1-4)GlcNAc(b1-3)Gal(b1-4)[Fuc(a1-3)]GlcNAc(b1-3)Gal(b1-4)[Fuc(a1-3)]GlcNAc
# How it was run: as §1
# [7] = target: GlcNAc(a1-6)Gal(b1-4)GlcNAc
# How it was run: as §1
# [8] = target: GlcNAc(b1-2)Gal(b1-3)GalNAc
# How it was run: as §1
# [9] = target: GlcNAc(b1-2)Man(a1-3)[GlcNAc(b1-2)Man(a1-6)]Man(b1-4)GlcNAc(b1-4)GlcNAc
# How it was run: as §1
# [10] = target: GlcNAc(b1-2)Man(a1-3)[GlcNAc(b1-2)Man(a1-6)]Man(b1-4)GlcNAc(b1-4)[Fuc(a1-6)]GlcNAc
# How it was run: as §1
# [11] = target: GlcNAc(b1-2)Man(a1-3)[GlcNAc(b1-4)][GlcNAc(b1-2)Man(a1-6)]Man(b1-4)GlcNAc(b1-4)GlcNAc
# How it was run: as §1
# [12] = target: GlcNAc(b1-2)Man(a1-3)[GlcNAc(b1-4)][GlcNAc(b1-2)Man(a1-6)]Man(b1-4)GlcNAc(b1-4)[Fuc(a1-6)]GlcNAc
# How it was run: as §1
# [13] = target: GlcNAc(b1-2)[GlcNAc(b1-4)]Man(a1-3)[GlcNAc(b1-2)Man(a1-6)]Man(b1-4)GlcNAc(b1-4)GlcNAc
# How it was run: as §1
# [14] = target: GlcNAc(b1-2)[GlcNAc(b1-4)]Man(a1-3)[GlcNAc(b1-4)][GlcNAc(b1-2)Man(a1-6)]Man(b1-4)GlcNAc(b1-4)GlcNAc
# How it was run: as §1
# [15] = target: GlcNAc(b1-2)[GlcNAc(b1-4)]Man(a1-3)[GlcNAc(b1-4)][GlcNAc(b1-2)[GlcNAc(b1-6)]Man(a1-6)]Man(b1-4)GlcNAc(b1-4)GlcNAc
# How it was run: as §1
# [16] = target: GlcNAc(b1-2)[GlcNAc(b1-4)]Man(a1-3)[GlcNAc(b1-4)][GlcNAc(b1-2)[GlcNAc(b1-6)]Man(a1-6)]Man(b1-4)GlcNAc(b1-4)[Fuc(a1-6)]GlcNAc
# How it was run: as §1
# [17] = target: GlcNAc(b1-2)[GlcNAc(b1-6)]Man(a1-6)[GlcNAc(b1-2)Man(a1-3)]Man(b1-4)GlcNAc(b1-4)GlcNAc
# How it was run: as §1
# [18] = target: GlcNAc(b1-2)[GlcNAc(b1-6)]Man(a1-6)[GlcNAc(b1-2)Man(a1-3)]Man(b1-4)GlcNAc(b1-4)[Fuc(a1-6)]GlcNAc
# How it was run: as §1
# [19] = target: GlcNAc(b1-2)[GlcNAc(b1-6)]Man(a1-6)[GlcNAc(b1-4)][GlcNAc(b1-2)Man(a1-3)]Man(b1-4)GlcNAc(b1-4)GlcNAc
# How it was run: as §1
# GlcNAc(b1-3)Fuc = target: GlcNAc(b1-3)Fuc
# How it was run: as §1
# GlcNAc(b1-3)Gal = target: GlcNAc(b1-3)Gal
# How it was run: as §1
# [20] = target: GlcNAc(b1-3)Gal(b1-3)GalNAc
# How it was run: as §1
# GlcNAc(b1-3)Gal(b1-4)Glc = target: GlcNAc(b1-3)Gal(b1-4)Glc
# How it was run: as §1
# [21] = target: GlcNAc(b1-3)Gal(b1-4)GlcNAc
# How it was run: as §1
# [22] = target: GlcNAc(b1-3)Gal(b1-4)GlcNAc(b1-2)Man(a1-3)[GlcNAc(b1-3)Gal(b1-4)GlcNAc(b1-2)Man(a1-6)]Man(b1-4)GlcNAc(b1-4)GlcNAc
# How it was run: as §1
# [23] = target: GlcNAc(b1-3)Gal(b1-4)GlcNAc(b1-2)Man(a1-3)[GlcNAc(b1-3)Gal(b1-4)GlcNAc(b1-2)Man(a1-6)]Man(b1-4)GlcNAc(b1-4)[Fuc(a1-6)]GlcNAc
# How it was run: as §1
# [24] = target: GlcNAc(b1-3)Gal(b1-4)GlcNAc(b1-2)[GlcNAc(b1-3)Gal(b1-4)GlcNAc(b1-6)]Man(a1-6)[GlcNAc(b1-3)Gal(b1-4)GlcNAc(b1-2)Man(a1-3)]Man(b1-4)GlcNAc(b1-4)GlcNAc
# How it was run: as §1
# [25] = target: GlcNAc(b1-3)Gal(b1-4)GlcNAc(b1-3)Gal(b1-4)GlcNAc
# How it was run: as §1
# [26] = target: GlcNAc(b1-3)Gal(b1-4)GlcNAc(b1-3)Gal(b1-4)GlcNAc(b1-2)Man(a1-3)[GlcNAc(b1-3)Gal(b1-4)GlcNAc(b1-3)Gal(b1-4)GlcNAc(b1-2)Man(a1-6)]Man(b1-4)GlcNAc(b1-4)GlcNAc
# How it was run: as §1
# [27] = target: GlcNAc(b1-3)Gal(b1-4)GlcNAc(b1-3)Gal(b1-4)GlcNAc(b1-2)Man(a1-3)[GlcNAc(b1-3)Gal(b1-4)GlcNAc(b1-3)Gal(b1-4)GlcNAc(b1-2)Man(a1-6)]Man(b1-4)GlcNAc(b1-4)[Fuc(a1-6)]GlcNAc
# How it was run: as §1
# [28] = target: GlcNAc(b1-3)Gal(b1-4)GlcNAc(b1-3)Gal(b1-4)GlcNAc(b1-2)[GlcNAc(b1-3)Gal(b1-4)GlcNAc(b1-3)Gal(b1-4)GlcNAc(b1-6)]Man(a1-6)[GlcNAc(b1-3)Gal(b1-4)GlcNAc(b1-3)Gal(b1-4)GlcNAc(b1-2)Man(a1-3)]Man(b1-4)GlcNAc(b1-4)[Fuc(a1-6)]GlcNAc
# How it was run: as §1
# [29] = target: GlcNAc(b1-3)Gal(b1-4)GlcNAc(b1-3)Gal(b1-4)GlcNAc(b1-3)Gal(b1-4)GlcNAc(b1-2)Man(a1-3)[GlcNAc(b1-3)Gal(b1-4)GlcNAc(b1-3)Gal(b1-4)GlcNAc(b1-3)Gal(b1-4)GlcNAc(b1-2)Man(a1-6)]Man(b1-4)GlcNAc(b1-4)GlcNAc
# How it was run: as §1
# [30] = target: GlcNAc(b1-3)Gal(b1-4)GlcNAc(b1-3)Gal(b1-4)GlcNAc(b1-3)Gal(b1-4)GlcNAc(b1-2)Man(a1-3)[GlcNAc(b1-3)Gal(b1-4)GlcNAc(b1-3)Gal(b1-4)GlcNAc(b1-3)Gal(b1-4)GlcNAc(b1-2)Man(a1-6)]Man(b1-4)GlcNAc(b1-4)[Fuc(a1-6)]GlcNAc
# How it was run: as §1
# [31] = target: GlcNAc(b1-3)Gal(b1-4)GlcNAc(b1-3)Gal(b1-4)GlcNAc(b1-3)Gal(b1-4)GlcNAc(b1-2)[GlcNAc(b1-3)Gal(b1-4)GlcNAc(b1-3)Gal(b1-4)GlcNAc(b1-3)Gal(b1-4)GlcNAc(b1-6)]Man(a1-6)[GlcNAc(b1-3)Gal(b1-4)GlcNAc(b1-3)Gal(b1-4)GlcNAc(b1-3)Gal(b1-4)GlcNAc(b1-2)Man(a1-3)]Man(b1-4)GlcNAc(b1-4)[Fuc(a1-6)]GlcNAc
# How it was run: as §1
# [32] = target: GlcNAc(b1-3)Gal(b1-4)GlcNAc(b1-3)Gal(b1-4)GlcNAc(b1-3)Gal(b1-4)GlcNAc(b1-3)Gal(b1-4)GlcNAc(b1-2)Man(a1-3)[GlcNAc(b1-3)Gal(b1-4)GlcNAc(b1-3)Gal(b1-4)GlcNAc(b1-3)Gal(b1-4)GlcNAc(b1-3)Gal(b1-4)GlcNAc(b1-2)Man(a1-6)]Man(b1-4)GlcNAc(b1-4)GlcNAc
# How it was run: as §1
# [33] = target: GlcNAc(b1-3)Gal(b1-4)GlcNAc(b1-3)Gal(b1-4)GlcNAc(b1-3)Gal(b1-4)GlcNAc(b1-3)Gal(b1-4)GlcNAc(b1-2)Man(a1-3)[GlcNAc(b1-3)Gal(b1-4)GlcNAc(b1-3)Gal(b1-4)GlcNAc(b1-3)Gal(b1-4)GlcNAc(b1-3)Gal(b1-4)GlcNAc(b1-2)Man(a1-6)]Man(b1-4)GlcNAc(b1-4)[Fuc(a1-6)]GlcNAc
# How it was run: as §1
# [34] = target: GlcNAc(b1-3)Gal(b1-4)GlcNAc(b1-3)Gal(b1-4)GlcNAc(b1-3)Gal(b1-4)GlcNAc(b1-3)Gal(b1-4)GlcNAc(b1-2)[GlcNAc(b1-3)Gal(b1-4)GlcNAc(b1-3)Gal(b1-4)GlcNAc(b1-3)Gal(b1-4)GlcNAc(b1-3)Gal(b1-4)GlcNAc(b1-6)]Man(a1-6)[GlcNAc(b1-3)Gal(b1-4)GlcNAc(b1-3)Gal(b1-4)GlcNAc(b1-3)Gal(b1-4)GlcNAc(b1-3)Gal(b1-4)GlcNAc(b1-2)Man(a1-3)]Man(b1-4)GlcNAc(b1-4)[Fuc(a1-6)]GlcNAc
# How it was run: as §1
# [35] = target: GlcNAc(b1-3)Gal(b1-4)GlcNAc(b1-3)Gal(b1-4)GlcNAc(b1-3)GalNAc
# How it was run: as §1
binder,measurement,setting,value
B1,glycan array binding signal (z-score),[1],-0.153
same,glycan array binding signal (z-score),[2],2.25
same,glycan array binding signal (z-score),[3],0.304
same,glycan array binding signal (z-score),[4],1.27
same,glycan array binding signal (z-score),[5],1.69
same,glycan array binding signal (z-score),[6],0.575
same,glycan array binding signal (z-score),[7],-0.014
same,glycan array binding signal (z-score),[8],-0.522
same,glycan array binding signal (z-score),[9],-0.337
same,glycan array binding signal (z-score),[10],-0.414
same,glycan array binding signal (z-score),[11],0.181
same,glycan array binding signal (z-score),[12],0.163
same,glycan array binding signal (z-score),[13],-0.456
same,glycan array binding signal (z-score),[14],-0.545
same,glycan array binding signal (z-score),[15],-0.746
same,glycan array binding signal (z-score),[16],-0.774
same,glycan array binding signal (z-score),[17],-0.319
same,glycan array binding signal (z-score),[18],-0.481
same,glycan array binding signal (z-score),[19],-0.162
same,glycan array binding signal (z-score),GlcNAc(b1-3)Fuc,-0.304
same,glycan array binding signal (z-score),GlcNAc(b1-3)Gal,-0.386
same,glycan array binding signal (z-score),[20],-0.568
same,glycan array binding signal (z-score),GlcNAc(b1-3)Gal(b1-4)Glc,-0.562
same,glycan array binding signal (z-score),[21],-0.24
same,glycan array binding signal (z-score),[22],-0.355
same,glycan array binding signal (z-score),[23],0.428
same,glycan array binding signal (z-score),[24],1.13
same,glycan array binding signal (z-score),[25],0.393
same,glycan array binding signal (z-score),[26],1.58
same,glycan array binding signal (z-score),[27],-0.054
same,glycan array binding signal (z-score),[28],1.27
same,glycan array binding signal (z-score),[29],2.39
same,glycan array binding signal (z-score),[30],1.3
same,glycan array binding signal (z-score),[31],1.44
same,glycan array binding signal (z-score),[32],1.11
same,glycan array binding signal (z-score),[33],0.525
same,glycan array binding signal (z-score),[34],0.812
same,glycan array binding signal (z-score),[35],-0.322
